{
  "source": "paper PMC5892938",
  "note": "This is one part of the list. At the low end of the ranking, values are background and their order means little.",
  "data": [
    {"target": "GST-SBP-SLBP (stem-loop binding protein) (UniProt Q14493)", "test": "targeted RNA Bind-n-Seq;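 also: DESeq read counts versus GST-SBP nonspecific binding control pulldown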", "settings": "RBNS binding buffer: 25 mM Tris pH 7.5, 150 mM KCl, 3 mM MgCl2, 0.1% Tween, 0.5 mg/mL BSA, 1 mM DTT; 27 nM protein, 750 pM RNA pool; temperature not stated; high values mean tight binding", "values": [
      {"sequence": "GGUCACGUCUCAAUCAACUCUUUCUCCAGGGAAAACCCUGGCUAACUCAACAGCUCGCAGUCAAG", "binding signal (log2 fold change)": -0.0779},
      {"sequence": "GGUCACGUCUCAAUCAACUCAUCUUCCAGGGAAAGCCCUGGUAUUCUCAACAGCUCGCAGUCAAG", "binding signal (log2 fold change)": 0.275},
      {"sequence": "GGUCACGUCUCAAUCAACUCCCUAGAGGGGGGGAAAACCCCUUUGCCCUCAUUCUCAACAGCUCGCAGUCAAG", "binding signal (log2 fold change)": -0.135},
      {"sequence": "GGUCACGUCUCAAUCAACUCCUUCGAGGGGGGGAAAACCCCUUUACCCUCACUAUCAACAGCUCGCAGUCAAG", "binding signal (log2 fold change)": 0.114},
      {"sequence": "GGUCACGUCUCAAUCAACUCAUUUUCAGGAGUUUUCUCCUGUAGUCUCAACAGCUCGCAGUCAAG", "binding signal (log2 fold change)": 0.0166},
      {"sequence": "GGUCACGUCUCAAUCAACUCAACUCCAGGAGUUUGCUCCUGUAAUCUCAACAGCUCGCAGUCAAG", "binding signal (log2 fold change)": 0.143},
      {"sequence": "GGUCACGUCUCAAUCAACUCAUUCCCAGGAGUUUACUCCUGCUAUUUCAACAGCUCGCAGUCAAG", "binding signal (log2 fold change)": -0.199},
      {"sequence": "GGUCACGUCUCAAUCAACUCAUCUUCAGGAGUUUCCUCCUGCUUAUUCAACAGCUCGCAGUCAAG", "binding signal (log2 fold change)": 0.0129},
      {"sequence": "GGUCACGUCUCAAUCAACUCACUAGAGGGGGGGAAAACCCCUUUACCCUCAUAAUCAACAGCUCGCAGUCAAG", "binding signal (log2 fold change)": -0.302},
      {"sequence": "GGUCACGUCUCAAUCAACUCAAAAGAGGGGGGGAAAACCCCUUUGCCCUCGAAAUCAACAGCUCGCAGUCAAG", "binding signal (log2 fold change)": 0.111},
      {"sequence": "GGUCACGUCUCAAUCAACUCAGUCUCCAGGGAAAGCCCUGGCUAUUUCAACAGCUCGCAGUCAAG", "binding signal (log2 fold change)": -0.216},
      {"sequence": "GGUCACGUCUCAAUCAACUCAUCGUCAGGAGUUUUCUCCUGCAAACUCAACAGCUCGCAGUCAAG", "binding signal (log2 fold change)": 0.121},
      {"sequence": "GGUCACGUCUCAAUCAACUCAAUUCCCAGGGAAACCCCUGGCUUUUUCAACAGCUCGCAGUCAAG", "binding signal (log2 fold change)": -0.164},
      {"sequence": "GGUCACGUCUCAAUCAACUCAAUUCCCAGGGAAAUCCCUGGCAUUCUCAACAGCUCGCAGUCAAG", "binding signal (log2 fold change)": 0.0712},
      {"sequence": "GGUCACGUCUCAAUCAACUCACACGAGGGGGGGAAAACCCCUUUACCCUCAACCUCAACAGCUCGCAGUCAAG", "binding signal (log2 fold change)": -0.12},
      {"sequence": "GGUCACGUCUCAAUCAACUCAUUCUCCAGGGAAAUCCCUGGUUUAUUCAACAGCUCGCAGUCAAG", "binding signal (log2 fold change)": 0.0798},
      {"sequence": "GGUCACGUCUCAAUCAACUCUAUCUCAGGAGUUUCCUCCUGUUUUCUCAACAGCUCGCAGUCAAG", "binding signal (log2 fold change)": -0.00215},
      {"sequence": "GGUCACGUCUCAAUCAACUCACUAGAGGGGGGGAAAACCCCUUUGCCCUCAACUUCAACAGCUCGCAGUCAAG", "binding signal (log2 fold change)": 0.151},
      {"sequence": "GGUCACGUCUCAAUCAACUCGUCUUCAGGAGUUUUCUCCUGUUAUUUCAACAGCUCGCAGUCAAG", "binding signal (log2 fold change)": 0.0505},
      {"sequence": "GGUCACGUCUCAAUCAACUCACAAGAGGGGGGGAAAACCCCUUUACCCUCACCAUCAACAGCUCGCAGUCAAG", "binding signal (log2 fold change)": -0.121}
    ]}
  ]
}
